In patent US20200361908A1, “CRYSTALS OF ANILINE PYRIMIDINE COMPOUND SERVING AS EGFR INHIBITOR” (CHIA TAI TIANQING PHARMACEUTICAL GROUP CO., LTD., priority 2016, published 2020):

Biological target: EGFR-L858R/T790M (DM) (Homo sapiens, UniProt P00533, L858R/T790M)
Details: ratio of IC50 EGFR (WT) to IC50 EGFR-L858R/T790M (DM)

## C=CC(=O)Nc1cc(Nc2nccc(-n3c(=O)n(C)c4ccccc43)n2)c(OC)cc1N(C)CCN(C)C [Example 1, N-(2-((2-(dimethylamino)ethyl)(methyl)amino)-4-methoxy-5-(4-(3-methyl-2-oxo-2,3-dihydro-1H-benzo[d]imidazol-1-yl)pyrimidin-2-ylamino)phenyl) acrylamide (I) hydrochloride]
  Enzyme Activity WT/DM: 12.6

Where a name gives a salt, the structure may show the parent alone.
